For 91 compounds, survival results are on record in PubChem BioAssay AID463173 (ICCB-Longwood Screening Facility, Harvard Medical School, 2010).

The campaign covered roughly 52,000 compounds. About 4,300 (8.3%) were called active. Cut-off read from the data, not from the text of the source: active = survival mostly below about 52% (no sharp cut-off); inactive = mostly above about 56%. This is one part of the list.

This assay concerns DeltatarO mutant. The assay can be described thus: S. aureus survival, RN4220 and DeltatarO strains – OD600, teichoic acid synthesis inhibitors, primary screen (AID 463173). The following applies: S. aureus RN4220 wild type/DeltatarO growth, OD600, 18 h, hits give low values, screened at 18.75 µg/mL (by protocol).
For `CCOC(=O)c1c(C)[nH]c2c1cc(O)c1ccccc12`, the survival is inactive: 89%.
The figure for `O=C(CN1CCN(c2ncccn2)CC1)N1CCCC1` is inactive: 93%.
The figure for `CCCN(C(=O)c1cc(S(=O)(=O)N2CCc3ccccc32)cn1C)c1ccc(OCC)cc1` is inactive: 63%; for `Cc1ccc(Cl)cc1N1CCN(c2ncnc3c2nc2n3CCCC2)CC1` it is inactive: 72%.
The figure for `Cc1ccccc1NC(=O)C(=O)NCC(c1ccc2c(c1)OCO2)N1CCN(c2ccccc2)CC1` (stereo unspecified) is inactive: 73%.
In the case of `CCOc1ccc(C2C(C(=O)Nc3ccccc3)=C(C)Nc3nc(-c4ccccc4Cl)nn32)cc1OC` (stereo unspecified), the survival was inactive: 48%.
Take `O=C(O)CC1c2ccccc2CCN1C(=O)Nc1cc(Cl)ccc1Cl` (stereo unspecified): the survival was inactive: 94%.
Turning to `Cc1ccc(-c2nnc(N3CCOCC3)c3ccccc23)cc1S(=O)(=O)NCC1CCCO1` (stereo unspecified), the survival is inactive: 82%.
On to `CCn1cc2c(n1)-c1c(oc(C(=O)Nc3ccc(Br)cc3F)c1C)CC2`, for which the survival was inactive: 71%.
The figure for `Cc1ccc(N(CC(=O)N2CCN(c3cc(C)ccc3C)CC2)S(=O)(=O)c2c(C)nn(C)c2C)cc1` is inactive: 64%; for `CCOC(=O)c1noc2nc(C)n(CC(=O)Nc3cccc(OC)c3)c(=O)c12` it is inactive: 108%.
As for `Cc1ccc(CN(C(=O)c2ccc(OCC(C)C)cc2)c2ccccn2)o1`, the figure is inactive: 104%.
The figure for `CCc1ccc(-c2nc(CS(=O)CC(=O)NCCc3ccc(C)cc3)c(C)o2)cc1` (stereo unspecified) is inactive: 89%.
As for `CCOc1ccc(N(C)C(=O)c2oc(=O)c3ccccc3c2-c2ccccc2)cc1`, the survival is inactive: 55%.
In the case of `CC(C)c1cnc2c(c1SCC(=O)NC(C)(C)C)c(=O)n(C)c(=O)n2C`, the survival was inactive: 85%.
Consider `CCN(CC)C(=O)Cn1c(=O)n(CCCCCC(=O)NCc2ccc3c(c2)OCO3)c(=O)c2sccc21`, for which the survival is inactive: 129%.
As to `O=c1c2sc3ccccc3c2n(Cc2cccc(F)c2)c(=O)n1CCc1ccccc1`, the survival was inactive: 77%.
The figure for `CCC(=O)OCc1cc(=O)n2nc(C3CC3)sc2n1` is inactive: 94%; for `Cc1ccc(NC(=O)CN2C(=O)COc3ccc(S(=O)(=O)N4CCCCCC4)cc32)c(C)c1` it is inactive: 78%; for `Cc1ccc(CNC(=O)C(=O)Nc2c3c(nn2-c2ccc(F)cc2)CSC3)cc1` it is inactive: 76%.
`Cc1ccc(CNC(=O)c2ccc(N3CCCC3)c(NC(=O)Nc3ccc(C)cc3)c2)cc1`: the survival was inactive: 101%.
As for `CCCc1cc(=O)oc2c3c(ccc12)OCN(Cc1ccccc1OC)C3`, the figure is inactive: 124%; as for `CN(C(=O)Cn1nc(Cc2cccnc2)c2ccccc2c1=O)c1cccc(C(F)(F)F)c1`, inactive: 75%; as for `O=C(Cn1c(=O)oc2ccccc21)N1CCCCC1`, inactive: 85%.
The figure for `Cn1cnnc1SCC(N)=O` is inactive: 99%; for `COC(=O)COc1ccc(-c2nnc(Nc3ccc(O)cc3)c3ccccc23)cc1` it is inactive: 186%.
The figure for `Cc1cc(Cl)ccc1-n1c(CCC(=O)O)ccc1-c1cccs1` is active: 47%; for `CCCCC1CCC(C(=O)N2CC(=O)Nc3ccc(Br)cc3C2c2ccc(F)cc2)CC1` (stereo unspecified) it is inactive: 55%.
Turning to `CCc1ccc(S(=O)(=O)c2nnn3c2nc(N2CCN(c4ccccc4)CC2)c2cc(Cl)ccc23)cc1`, the survival was inactive: 105%.
The figure for `CCc1c(C)c2ccc(O)c(CN3CCN(c4cc(Cl)ccc4C)CC3)c2oc1=O` is inactive: 54%.
`Cc1cccc2c1-c1sc(C(=O)Nc3ccc(F)cc3F)cc1CO2`: the survival is inactive: 85%.
As for `COc1ccccc1CCNC(=O)Cc1c(C)c2cc(Cl)c(O)cc2oc1=O`, the figure is inactive: 58%.
For `CCCCOc1ccccc1C1CC(=O)Nc2ccc3ccccc3c21` (stereo unspecified), the survival was inactive: 103%.
The figure for `CC(C)c1ccc(S(=O)(=O)N2CCN(Cc3cccc(F)c3)CC2)cc1` is inactive: 128%; for `CCOc1ccc(CNC(=O)c2oc3c(c2C)-c2nn(Cc4cccc(Cl)c4)cc2CC3)cc1` it is inactive: 77%; for `COc1ccc(C)c2sc(NC(=O)c3ccc(S(=O)(=O)N(C)C)cc3)nc12` it is inactive: 92%.
The figure for `Cc1cc(C)cc(OCC(=O)Nc2cccc3cccnc23)c1` is inactive: 73%; for `CCCc1cnc2c(c1SCC(=O)NCc1ccc(C)cc1)c(=O)n(C)c(=O)n2C` it is active: -4%.
The figure for `CCCCCCC(=O)Nc1ccc2nc3c(=O)n(C)c(=O)n(C)c3nc2c1C` is inactive: 81%; for `O=C(c1ccc2c(c1)N(Cc1ccc(Cl)cc1)C(=O)c1ccccc1S2(=O)=O)N1CCCC1` it is inactive: 65%.
Regarding `CCOC(=O)c1ccc(N2C(=O)c3n[nH]c(-c4ccco4)c3C2c2ccc(C(=O)OC)cc2)cc1` (stereo unspecified), the survival was inactive: 89%.
On to `CCOc1ccc(NS(=O)(=O)c2c(C)nc3sc(C)c(C)n3c2=O)cc1`, for which the survival was inactive: 75%.
The figure for `CCOC(=O)C1CCN(C(=O)c2ccccc2NC(=O)c2nsc3ccccc23)CC1` is inactive: 128%; for `CCN1C(=O)c2ccccc2S(=O)(=O)c2ccc(C(=O)NCc3ccccc3)cc21` it is inactive: 71%.
As for `O=C(CSc1ncc(-c2ccccc2)[nH]1)Nc1ccccc1`, the figure is inactive: 64%; as for `CCOC(=O)C1CCC(CN(Cc2ccc(Cl)cc2)S(=O)(=O)c2cccc(Cl)c2C)CC1` (stereo unspecified), inactive: 87%; as for `Cc1nc2nc(NC(=O)c3ccc(C(C)(C)C)cc3)[nH]n2c(=O)c1C`, inactive: 95%.
As for `O=C(CCC1N=C2c3ccccc3N=C(SCC(=O)Nc3cccc(Cl)c3)N2C1=O)NCc1ccco1` (stereo unspecified), the figure is inactive: 76%; as for `O=C(Cn1cnc2ccccc2c1=O)NCc1ccccc1`, inactive: 82%; as for `O=C(CN1C(=O)C2CCc3[nH]c4ccccc4c3C2C1=O)N1CCCC1` (stereo unspecified), inactive: 86%.
`CCOc1ccc(-c2cccc(NS(=O)(=O)c3ccc(C)s3)c2)nn1`: the survival is inactive: 83%.
For the compound `CCOC(=O)C1CCN(C(=O)c2cc3sc(C)cc3n2C)CC1`, the survival is inactive: 74%.
As for `CCCCN(CC)C(=O)CSc1nc2n[nH]c(C)c2c(=N)n1-c1ccc(CC)cc1`, the survival was inactive: 108%.
As for `COc1ccc(NC(=O)CSc2ncc3c(n2)-c2ccccc2N(Cc2ccc(C)cc2)S3(=O)=O)cc1Cl`, the figure is inactive: 136%; as for `COCCCn1c(=O)c2sccc2n2c(CCCC(=O)NCc3cccc(OC)c3)nnc12`, inactive: 84%; as for `Cc1c(CCC(=O)O)c(=O)[nH]c2ccccc12`, inactive: 108%.
As for `COc1ccc(N=Nc2c(N)n[nH]c2N)cc1`, the figure is active: 1%; as for `CCn1c(CN2CCOCC2)nc2cc(NC(=O)c3cccc([N+](=O)[O-])c3)ccc21`, inactive: 82%.
The figure for `COc1ccc(NC(=O)Cn2cc(C(=O)c3ccccc3OC)c(=O)c3ccc(C)nc32)cc1OC` is inactive: 78%.
Regarding `CCOC(Cn1ccc(=O)[nH]c1=O)OCC`, the survival is inactive: 100%.
The figure for `CCCc1nnc(NC(=O)Nc2ccccc2Cl)s1` is inactive: 108%; for `Cc1nc2nc(C)c(NS(=O)(=O)c3ccc(CC(C)C)cc3)c(=O)n2[nH]1` it is inactive: 89%; for `CCOc1ccc(OCC)c(NC(=O)C2CCCN(S(=O)(=O)c3cc(Br)cc4c3N(C(=O)CC)CC4)C2)c1` (stereo unspecified) it is inactive: 100%.
As for `Cc1nn(C(=O)c2c(F)cccc2F)c(C)c1S(=O)(=O)N1CCCCCC1`, the figure is inactive: 84%; as for `S=C(c1ccncc1)N1CCOCC1`, inactive: 74%.
The figure for `Cc1ccc(C)c(NC(=O)/C(C#N)=C/c2ccc(C(C)C)cc2)c1` is inactive: 66%.
As to `COc1ccc(C)cc1NC(=O)c1oc2ccc(S(=O)(=O)N3CCC4(CC3)OCCO4)cc2c1C`, the survival was inactive: 68%.
The figure for `CCOC(=O)c1ccc(N2CCN(c3cc(C)ccc3C)CC2)c(NC(=O)Nc2ccc(Cl)cc2)c1` is inactive: 84%.
The figure for `CC(C)N(C(=O)Cn1cc(SCC(=O)Nc2ccccc2C(F)(F)F)c2ccccc21)C(C)C` is inactive: 100%.
The figure for `CCOc1ccc(C2C(C(=O)Nc3ccccc3C)=C(C)Nc3nnnn32)cc1` (stereo unspecified) is inactive: 53%.
In the case of `CC(=O)Nc1nnc2n1CCS2`, the survival is inactive: 68%.
For the compound `O=C(CN1C(=O)C2C3C=CC(C3)C2C1=O)NCc1ccco1` (stereo unspecified), the survival is inactive: 70%.
`Cc1ccc(CN2CCC(CNC(=O)Nc3ccc(C)c(C)c3)C2)cc1` (stereo unspecified): the survival is inactive: 71%.
The figure for `COc1ccc(C)cc1NC(=O)c1nnn(-c2c(C)cccc2C)c1C` is inactive: 90%; for `CCOc1cccc(CC(=O)N2CCc3c([nH]c4ccccc34)C2c2ccc(SC)cc2)c1OCC` (stereo unspecified) it is inactive: 107%; for `COc1ccc(N2C(=O)CSC23C(=O)N(Cc2ccc(C)cc2)c2ccccc23)cc1Cl` (stereo unspecified) it is inactive: 124%.
As for `CCOc1ccc(NC(=O)Cn2nc(Cc3ccncc3)c3ccccc3c2=O)cc1`, the figure is inactive: 91%; as for `CCCN(CCC)C(=O)c1nn(C)c2c1CSc1ccc(C)cc1-2`, inactive: 92%.
As for `CC(C)Cn1c(=O)c2ccccc2n2c(CCC(=O)Nc3ccc(F)cc3)nnc12`, the figure is inactive: 83%; as for `COc1ccccc1/C=C/c1nc(C#N)c(NCC(C)C)o1`, active: 47%.
Take `COC(=O)c1[nH]c2ccc(F)cc2c1N`: the survival is inactive: 98%.
As for `COc1cc(NC(=O)CN2Cc3ccccc3C2=O)cc(OC)c1OC`, the figure is inactive: 94%; as for `Cc1ccc(-c2nc(CCNC(=O)C(=O)Nc3c(C)cccc3C)cs2)cc1`, active: 8%.
The figure for `CC1=[N+](CCO)c2ccccc2C1(C)C` is inactive: 90%; for `CCOCCn1cnc2sc(C(=O)Nc3ccccc3C(=O)OC)c(C)c2c1=O` it is inactive: 119%.
The figure for `CCN(CC)CCOC(=O)c1ccc(NC(=O)c2cc3c(s2)-c2ccccc2OC3)cc1` is active: -7%.
As to `Cc1nc(-c2ccc(S(=O)(=O)Nc3ccc(Cl)c(C(F)(F)F)c3)cc2)co1`, the survival was inactive: 95%.
The figure for `COc1ccc(CNC(=O)c2sc3nc4n(c(=O)c3c2C)CCCCC4)cc1` is inactive: 50%.
As for `Clc1cccc(C2=NC(c3cccs3)=Nc3ccc(Br)cc3N2)c1`, the figure is inactive: 82%; as for `CCN(CC)CCOC(=O)c1ccc(Nc2c3c(nc4ccccc24)CCC3)cc1`, inactive: 94%.
`COc1ccc(CNC(=O)C(CC(C)C)N2Cc3ccccc3C2=O)cc1` (stereo unspecified): the survival is inactive: 126%.
